The campaign covered roughly 310,000 compounds. About 14,000 (4.5%) showed an effect of 50% or more. Effects have a minus sign here. Some of the results follow.
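Further: peak tail current of the secondary pulse compared with the same well before compound.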

Chain of human ether-à-go-go-related gene (hERG) potassium channel (Q12809 whole entry, looked up): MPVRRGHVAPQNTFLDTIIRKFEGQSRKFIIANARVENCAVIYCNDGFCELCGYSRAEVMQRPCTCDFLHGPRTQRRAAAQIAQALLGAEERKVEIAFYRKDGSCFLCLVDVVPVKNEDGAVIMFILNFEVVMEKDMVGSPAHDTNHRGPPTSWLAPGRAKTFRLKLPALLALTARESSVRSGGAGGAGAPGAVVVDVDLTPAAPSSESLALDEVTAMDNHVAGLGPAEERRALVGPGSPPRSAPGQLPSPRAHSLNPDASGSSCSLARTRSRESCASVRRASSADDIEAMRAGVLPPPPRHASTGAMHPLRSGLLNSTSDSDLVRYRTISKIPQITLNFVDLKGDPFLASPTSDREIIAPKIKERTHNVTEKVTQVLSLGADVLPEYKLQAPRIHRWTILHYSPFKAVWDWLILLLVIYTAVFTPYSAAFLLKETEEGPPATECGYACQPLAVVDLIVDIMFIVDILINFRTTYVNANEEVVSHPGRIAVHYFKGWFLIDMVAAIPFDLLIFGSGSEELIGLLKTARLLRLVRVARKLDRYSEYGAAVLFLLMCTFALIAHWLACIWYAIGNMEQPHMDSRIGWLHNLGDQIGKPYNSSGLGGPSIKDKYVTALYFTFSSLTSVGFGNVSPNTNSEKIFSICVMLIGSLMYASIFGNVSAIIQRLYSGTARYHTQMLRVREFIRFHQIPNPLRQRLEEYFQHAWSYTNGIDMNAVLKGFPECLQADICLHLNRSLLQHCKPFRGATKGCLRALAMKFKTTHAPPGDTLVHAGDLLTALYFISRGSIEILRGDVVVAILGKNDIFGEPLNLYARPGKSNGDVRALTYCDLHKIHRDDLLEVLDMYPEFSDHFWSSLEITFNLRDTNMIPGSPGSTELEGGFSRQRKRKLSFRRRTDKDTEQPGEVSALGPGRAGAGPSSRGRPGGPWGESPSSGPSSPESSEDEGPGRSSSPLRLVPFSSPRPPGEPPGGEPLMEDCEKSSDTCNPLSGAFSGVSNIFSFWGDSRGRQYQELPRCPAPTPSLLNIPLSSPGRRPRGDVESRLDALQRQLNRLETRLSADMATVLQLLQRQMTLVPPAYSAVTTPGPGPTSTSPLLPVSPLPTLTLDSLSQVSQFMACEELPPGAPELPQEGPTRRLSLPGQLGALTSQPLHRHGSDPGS

This assay has as its target human ether-à-go-go-related gene (hERG) potassium channel (human, UniProt Q12809). The experiment in a line: primary screen, population patch clamp on CHO cells stably expressing hERG.
Turning to `CCO[C@H]1OC(C(N)=O)=C[C@@H](c2ccc(Br)cc2)[C@@H]1CCCO`, the “hERG current change (%, negative = inhibition) at 10uM” value was -25.1%.

Turning to `O=C(C[n+]1cccc(Br)c1)c1cccs1.[Br-]`, the “hERG current change (%, negative = inhibition) at 10uM” value was 9.29%.

As to `CC(C)N(Cc1nc(-c2ccc(Cl)cc2)no1)C(=O)CCC1CCCC1`, the “hERG current change (%, negative = inhibition) at 10uM” value was -7.81%.

Turning to `Cc1cc(C(=O)C(=O)O)c(C)n1-c1ccc(Cl)cc1`, the “hERG current change (%, negative = inhibition) at 10uM” value is -43.4%.

With `COc1ccc(C(=O)NNC(=O)CCc2ccccc2OC)cc1`, the “hERG current change (%, negative = inhibition) at 10uM” value came to 7.71%.

For `Cc1nn(Cc2ccccc2)c(C)c1/C=N/NC(=O)c1ccncc1`, the “hERG current change (%, negative = inhibition) at 10uM” value is reported as -46.4%.

Consider `COc1ccccc1C1(CC(=O)O)CCOC(C)(C)C1` (centres unmarked), for which the “hERG current change (%, negative = inhibition) at 10uM” value is listed as -3.35%.

With `COc1cccc(NC(=O)CNC(C)CCC(C)C)c1.Cl` (centres unmarked), the “hERG current change (%, negative = inhibition) at 10uM” value is on record as -6.31%.

Consider `COc1ccc(C2Nc3ccccc3C(=O)N2c2ccccc2)cc1CSc1ccccn1` (centres unmarked), for which the “hERG current change (%, negative = inhibition) at 10uM” value is 6.48%.

Take `Cc1cc(-c2cc(C(=O)Nc3ccccc3)on2)nc(NC2CCCC2)n1`: the “hERG current change (%, negative = inhibition) at 10uM” value was -3.16%.

Turning to `Cn1c(=O)c2c(nc(NCCCN3CCOCC3)n2Cc2ccc(Cl)cc2)n(C)c1=O`, the “hERG current change (%, negative = inhibition) at 10uM” value is recorded as -20.8%.

Regarding `Cc1ccc(NC2CC(C)NC(=S)N2)cc1` (centres unmarked), the “hERG current change (%, negative = inhibition) at 10uM” value was 1.24%.

Turning to `CCOc1ccc(C(=O)Nc2nnc(S(=O)(=O)Nc3ccccc3C)s2)cc1`, the “hERG current change (%, negative = inhibition) at 10uM” value was 18.4%.

As to `CCn1c(COc2cccc(C)c2)nnc1SCC(=O)CC(=O)Nc1ccccc1OC`, the “hERG current change (%, negative = inhibition) at 10uM” value is listed as -15.6%.

As for `Cc1ccsc1/C=N/NC(=O)CN1CCN(S(=O)(=O)c2ccc(Br)cc2)CC1`, the “hERG current change (%, negative = inhibition) at 10uM” value was -41.7%.

Regarding `O=C(CNC(=O)c1ccc(Br)o1)OCC(=O)c1cccc([N+](=O)[O-])c1`, the “hERG current change (%, negative = inhibition) at 10uM” value was -22.3%.

For `CC(C)OCCCNC(=O)CCc1nc(-c2ccccc2)no1`, the “hERG current change (%, negative = inhibition) at 10uM” value amounted to 15.8%.

`COc1cc(C2=NOC(C(=O)Nc3cc(C)on3)C2)cc(OC)c1OC` (centres unmarked): the “hERG current change (%, negative = inhibition) at 10uM” value is listed as 1.34%.

`CC(C)OCCCNC(=O)C1CC(=O)N(CCc2ccccc2)C1` (centres unmarked): the “hERG current change (%, negative = inhibition) at 10uM” value is listed as 20%.

For the compound `O=C(c1ccccc1)N1N=C(C(F)(F)F)CC1(O)c1ccccc1` (centres unmarked), the “hERG current change (%, negative = inhibition) at 10uM” value worked out at 10.6%.

`CS(=O)(=O)c1ccc(CNC(=O)C2(C(F)(F)F)C/C(=C/CCO)CCCO2)cc1` (centres unmarked): the “hERG current change (%, negative = inhibition) at 10uM” value was -0.92%.

With `CCOc1ccc(NCC(=O)N/N=C/C=C/c2ccccc2)cc1`, the “hERG current change (%, negative = inhibition) at 10uM” value is given as -7.47%.

Consider `CC(=O)c1cccc(CN2CCC(n3nccc3NC(=O)CCCc3ccccc3)CC2)c1`, for which the “hERG current change (%, negative = inhibition) at 10uM” value is reported as -37.8%.

Consider `CC1=CC(C)(C)N(C(=O)CSc2ncn[nH]2)c2ccc(C)cc21`, for which the “hERG current change (%, negative = inhibition) at 10uM” value is -4.26%.

`Cn1c(SCCN2CCCC2)nnc1C1CCN(S(=O)(=O)c2cccc(F)c2)CC1`: the “hERG current change (%, negative = inhibition) at 10uM” value is given as -9.81%.

Turning to `COc1ccc(-c2onc(C)c2C)cc1S(=O)(=O)NCCc1ccco1`, the “hERG current change (%, negative = inhibition) at 10uM” value is reported as -41.8%.

Consider `COc1ccc(-c2cn[nH]c2-c2ccc(OCc3ccccc3)cc2O)cc1`, for which the “hERG current change (%, negative = inhibition) at 10uM” value was -0.98%.

For `CC(Oc1ccccc1F)C(=O)NNC(=O)c1cccc(S(=O)(=O)N2CCN(C)CC2)c1` (centres unmarked), the “hERG current change (%, negative = inhibition) at 10uM” value turned out to be 10.3%.

For the compound `O=C(COc1ccc(Br)cc1)Nc1ccccc1N1CCCC1`, the “hERG current change (%, negative = inhibition) at 10uM” value is recorded as -2.87%.

With `COc1cccc(CN(C)C(=O)c2ccc3nccnc3c2)c1`, the “hERG current change (%, negative = inhibition) at 10uM” value is -6.89%.

Regarding `Cc1ccc(Oc2cc(C#N)c(C#N)cc2-n2nnc3ccccc32)cc1C`, the “hERG current change (%, negative = inhibition) at 10uM” value was 4.03%.

As to `Cc1cc(NC(=O)CCl)on1`, the “hERG current change (%, negative = inhibition) at 10uM” value was determined as 44.3%.

For the compound `O=C(c1ccc(-c2ccccc2)cc1)N1CCN(c2ccccc2F)CC1`, the “hERG current change (%, negative = inhibition) at 10uM” value turned out to be 7.96%.

For `CCCn1c(SCC(=O)c2cc(C)n(C3CC3)c2C)n[nH]c1=O`, the “hERG current change (%, negative = inhibition) at 10uM” value is recorded as -6.45%.

On to `O=C(CSCSCC(=O)Nc1ccc2c(c1)OCO2)Nc1ccc2c(c1)OCO2`, for which the “hERG current change (%, negative = inhibition) at 10uM” value is reported as -2.21%.

Consider `O=S(=O)(NCCOc1ccccc1Cl)c1ccc2oc3ccccc3c2c1`, for which the “hERG current change (%, negative = inhibition) at 10uM” value came to 3.52%.

In the case of `COc1ccc(NC(=O)COC(=O)Cc2c[nH]c3ccccc23)cc1OC`, the “hERG current change (%, negative = inhibition) at 10uM” value is 11.2%.

Take `O=C(CSc1nnc2c(n1)[nH]c1ccc(F)cc12)OCc1ccccc1`: the “hERG current change (%, negative = inhibition) at 10uM” value was 20.7%.

`CCCc1cc(C(=O)N2CCN(S(=O)(=O)c3ccc(OC)c(OC)c3)CC2)cs1`: the “hERG current change (%, negative = inhibition) at 10uM” value is given as -26.8%.

With `O=C(O)C(=O)O.c1ccc2cc(OCCCn3ccnc3)ccc2c1`, the “hERG current change (%, negative = inhibition) at 10uM” value is given as -6.69%.

`Cc1cc(C)n(-c2ccc(C(=O)Nc3ccc(S(=O)(=O)N(C)C)cc3)cc2)n1`: the “hERG current change (%, negative = inhibition) at 10uM” value is on record as -40.8%.

In the case of `Nn1c(SCc2cccc(F)c2)nnc1-c1ccncc1`, the “hERG current change (%, negative = inhibition) at 10uM” value was -4.03%.

Consider `COC(=O)c1ccc(CSc2nnc3ccccn23)o1`, for which the “hERG current change (%, negative = inhibition) at 10uM” value was 6.81%.

On to `Cc1cc(C)c2nc(-n3nc(C)cc3N)cc(C)c2c1`, for which the “hERG current change (%, negative = inhibition) at 10uM” value turned out to be 20%.

`CC#CCN1c2ccccc2[C@]23C[C@@H](C(=O)OC)N(C(=O)c4cc(C)oc4C)C2=NC(C(=O)OC)=C(C(=O)OC)[C@H]13`: the “hERG current change (%, negative = inhibition) at 10uM” value is recorded as -6.24%.

Regarding `COc1ccc(S(=O)(=O)NCC2CCCN(C(=O)CCSC)C2)cc1` (centres unmarked), the “hERG current change (%, negative = inhibition) at 10uM” value is listed as 18%.

Regarding `CCn1c2ccccc2c2cc(N)ccc21`, the “hERG current change (%, negative = inhibition) at 10uM” value came to 4.52%.

With `O/N=C(\c1ccccc1)C(O)c1ccccc1` (centres unmarked), the “hERG current change (%, negative = inhibition) at 10uM” value was -18.4%.

With `COc1ccc(Cl)cc1N1C(=O)C2CCCN2C1c1ccc(F)cc1` (centres unmarked), the “hERG current change (%, negative = inhibition) at 10uM” value was -2.02%.

In the case of `CCOC(=O)c1sc(=NC(=O)c2ccccc2)n(C)c1C`, the “hERG current change (%, negative = inhibition) at 10uM” value amounted to 13.7%.

In the case of `COc1ccc(OCC(=O)NCCS(=O)(=O)N2CCN(c3ccc(F)cc3)CC2)cc1`, the “hERG current change (%, negative = inhibition) at 10uM” value is -8.69%.

Turning to `Cn1c(-c2ccc([N+](=O)[O-])cc2)nc2ccccc21`, the “hERG current change (%, negative = inhibition) at 10uM” value is given as -1.03%.

Take `CCC(C)(C)C1CCC2(CC1)NC(=O)N(CC(=O)Nc1nc(-c3ccc(C)cc3)cs1)C2=O` (centres unmarked): the “hERG current change (%, negative = inhibition) at 10uM” value is recorded as 24.1%.

With `NC(N)=Nc1nc2ccccc2o1`, the “hERG current change (%, negative = inhibition) at 10uM” value is recorded as 17.8%.

Consider `Br.C/C(CC1CC(COCC(C)C)OC1=O)=N\Nc1nc(-c2ccccc2)cs1` (centres unmarked), for which the “hERG current change (%, negative = inhibition) at 10uM” value is on record as -15.5%.

For `CC(=O)N1CCc2c(sc3c2c(=O)n(-c2ccccc2)c(=O)n3Cc2ccccc2Cl)C1`, the “hERG current change (%, negative = inhibition) at 10uM” value is recorded as -24.2%.

Values taken from paper PMC4336329 (PLoS ONE, 2015).
